About 2,200 (0.71%) of roughly 310,000 compounds showed an effect of 50% or more. The effect is printed as a negative number. Some of the results follow. Where a SMILES comes first, the peptide text is derived from it. The star is where a group is joined. Boc = CC(C)(C)OC(=O)*; OBn = c1ccc(CO*)cc1
biological target: human ether-à-go-go-related gene (hERG) potassium channel (human, UniProt Q12809); experiment: primary screen, population patch clamp on CHO cells stably expressing hERG
Sequence (Q12809 whole entry, looked up): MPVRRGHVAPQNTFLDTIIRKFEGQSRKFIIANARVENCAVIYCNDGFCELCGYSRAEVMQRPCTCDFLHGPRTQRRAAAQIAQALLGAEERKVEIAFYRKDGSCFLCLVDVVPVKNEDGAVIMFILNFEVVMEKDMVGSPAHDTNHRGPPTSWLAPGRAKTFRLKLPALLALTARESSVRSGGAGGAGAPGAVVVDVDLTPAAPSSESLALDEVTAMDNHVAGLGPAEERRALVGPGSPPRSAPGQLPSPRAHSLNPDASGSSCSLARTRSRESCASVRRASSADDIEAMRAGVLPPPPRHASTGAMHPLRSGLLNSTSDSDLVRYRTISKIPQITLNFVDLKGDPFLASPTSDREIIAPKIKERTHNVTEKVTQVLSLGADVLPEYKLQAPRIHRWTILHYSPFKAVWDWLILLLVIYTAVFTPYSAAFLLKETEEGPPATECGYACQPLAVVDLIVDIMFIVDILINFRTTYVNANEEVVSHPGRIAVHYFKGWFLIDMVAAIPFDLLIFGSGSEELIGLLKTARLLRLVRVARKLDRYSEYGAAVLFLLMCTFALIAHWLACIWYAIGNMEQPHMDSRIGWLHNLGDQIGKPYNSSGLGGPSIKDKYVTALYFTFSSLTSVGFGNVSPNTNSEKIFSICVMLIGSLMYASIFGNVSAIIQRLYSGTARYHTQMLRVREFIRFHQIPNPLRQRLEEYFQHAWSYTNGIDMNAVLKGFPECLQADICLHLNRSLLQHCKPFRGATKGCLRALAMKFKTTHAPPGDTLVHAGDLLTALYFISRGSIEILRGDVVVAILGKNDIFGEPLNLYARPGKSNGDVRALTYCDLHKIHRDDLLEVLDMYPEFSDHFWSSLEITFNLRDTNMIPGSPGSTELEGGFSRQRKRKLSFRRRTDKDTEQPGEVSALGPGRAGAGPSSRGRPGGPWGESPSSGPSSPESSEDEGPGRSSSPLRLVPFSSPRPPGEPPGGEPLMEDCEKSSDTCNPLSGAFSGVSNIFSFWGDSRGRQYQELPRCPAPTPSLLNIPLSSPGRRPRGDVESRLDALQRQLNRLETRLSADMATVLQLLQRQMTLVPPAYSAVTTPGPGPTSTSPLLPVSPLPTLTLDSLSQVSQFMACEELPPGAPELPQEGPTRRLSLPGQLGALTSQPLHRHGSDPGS

| Compound | hERG current change (%, negative = inhibition) at 1uM [%] |
| --- | --- |
| O=C(NCCSc1ccccn1)c1ccc(Cl)cc1 | -0.123 |
| COc1cccc(C2=CC(=O)CC(C)(C)C2)c1 | 11.1 |
| O=C(Cn1nnc(-c2ccccc2-n2cnnn2)n1)c1ccccc1 | 5.12 |
| Cc1cc(C(=O)NNC(=S)NCc2ccco2)nn1C | 17.5 |
| Cc1ccc(C(=O)Nc2nnc(S(=O)(=O)N3CCC(C)CC3)s2)cc1 | 14.4 |
| O=C(CCC(=O)N1CCN(S(=O)(=O)c2ccc3ccccc3c2)CC1)Nc1cc(Cl)cc(Cl)c1 | 9.32 |
| COC(=O)N/N=C(C)\C=C\c1ccco1 | 20.4 |
| COc1cc(/C=N/NC(=O)CCc2c(C)n[nH]c2C)cc(OC)c1OC | 12.1 |
| CN1CCc2c(sc3c2c(=O)n(-c2ccc(Cl)cc2)c2nncn32)C1 | 6.78 |
| Cc1ccc(S(=O)(=O)N2CCCOC2CNC(=O)C(=O)NCCC2=CCCCC2)cc1 (stereo not drawn) | 4.67 |
| CCOc1ccc2ccccc2c1/C=N\NC(=O)c1ccc([N+](=O)[O-])cc1 | 10.5 |
| COc1ccc(C2CCCN2C(=S)Nc2cccc(Cl)c2C)cc1OC (stereo not drawn) | 2.08 |
| COc1ccc(N(CC(=O)NN=C2CCN(C)CC2)S(=O)(=O)c2ccc(NC(C)=O)cc2)cc1 | 11.3 |
| CC1(c2nnc(Cc3ccccc3)o2)CC(c2ccccc2F)=NO1 (stereo not drawn) | 14.1 |
| C=CCN(C(=O)CNS(=O)(=O)c1ccccc1)C(C(=O)NCCOC)c1ccncc1 (stereo not drawn) | 12.3 |
| CCN(CC)S(=O)(=O)c1ccc2c3c(cccc13)C(=O)N2 | 4.19 |
| O=C(COc1ccc(-c2ccccc2)cc1)NNC(=O)NC1CCCCC1 | 13.2 |
| Cc1ccc(C(=O)OCC(=O)NCc2ccco2)cc1C | 10.3 |
| Cc1noc(NS(=O)(=O)c2ccc(N/C=C\C(=O)c3cccs3)cc2)c1C | 13.6 |
| CCN(CC)c1ccc([N+](=O)[O-])cc1C(=O)N1CCOCC1 | 5.14 |
| Cc1ccccc1NC(=O)Nc1nnc(CC(=O)NCc2ccccc2)s1 | -6.04 |

| Compound | hERG current change (%, negative = inhibition) at 1uM [%] |
| --- | --- |
| CCc1nc(SCc2ccc(Cl)cc2)n[nH]1 | 11.9 |
| Cc1cccc2cc3c(nc12)-c1ccccc1C3=O | 14.8 |
| Cc1c(C#N)c(O)n(CCO)c(=O)c1N=Nc1ccc(S(N)(=O)=O)cc1 | -1.63 |
| CCOC(=O)CNC(=O)c1ccccc1 | 7.32 |
| CCOc1cc(S(=O)(=O)NCc2ccncc2)ccc1Cl | 7.07 |
| Cc1ccccc1N/C(=N/S(=O)(=O)c1cc(F)ccc1F)c1ccccc1 | 10.3 |
| COc1ccc(Nc2nc(Cl)nc(NCCO)n2)cc1 | 4.45 |
| CC(C)C(NC(=O)OC(C)(C)C)C(=O)NC(CCC(=O)OCc1ccccc1)C(N)=O (stereo not drawn) (Boc-Val-Glu(OBn)-NH2; configuration not given here) | -4.76 |
| CCc1cccc2c1NC(=O)C21N2CCCC2C(C(=O)c2ccc3ccccc3c2)C12C(=O)Nc1ccccc12 (stereo not drawn) | 6.17 |
| Cc1cc(NC(=O)c2ccc(N3C(=O)C4C5C=CC(C5)C4C3=O)cc2)no1 (stereo not drawn) | 12.6 |
| CC1(C)Cc2c(sc3nc(SCC(=O)O)nc(N)c23)CO1 | 14.4 |
| CC1CCN(C(=O)CSc2nnc3c(n2)[nH]c2ccc(F)cc23)CC1 | -19 |
| O=C(CNC(=O)c1cccc(Cl)c1)Nc1ccc(F)c(F)c1F | 7.3 |
| Cc1cccc(C2NC(c3cccc(C)c3)C([N+](=O)[O-])C(C)(C)C2[N+](=O)[O-])c1 (stereo not drawn) | 7.86 |
| N#Cc1c(-c2ccccc2)c(-c2ccccc2)n(Cc2ccco2)c1NC(=O)c1cccs1 | 15.9 |
| CCN(CC(=O)Nc1ccccc1C(F)(F)F)C(=O)c1cc(S(=O)(=O)N2CCCCCC2)ccc1OC | 11.8 |
| Cc1cc(C)cc(C(=O)NC(=S)Nc2ccc3c(c2)OCCO3)c1 | -4.67 |
| O=C(COC(=O)CNC(=O)c1cccc(F)c1)NCCC1=CCCCC1 | 12.4 |
| CC(C)n1cc(C(=O)N2CCCC(N3CCN(c4cccc(Cl)c4)CC3)C2)cn1 (stereo not drawn) | -13.2 |
| COc1ccc(CCN(C)C(=S)Nc2cccc(C)c2)cc1OC | 19.2 |
| Cc1cc(C)n2nc(SCC(=O)c3cc(C)n(CC4CCCO4)c3C)nc2n1 (stereo not drawn) | 0.0539 |

— PMC4336329 (PLoS ONE, 2015)
